# Some of the results follow.
# Tested on: HepG2
# Assay: cytotoxicity call (relative viability < 0.9)
# Conditions: 10 µM
row,SMILES,cytotoxicity call
1,C[C@@H]1CN([C@@H](C)CO)C(=O)c2cccc(NC(=O)C3CC3)c2O[C@H]1CN(C)Cc1ccc2c(c1)OCO2,inactive
2,COc1cccc(S(=O)(=O)N(C)C[C@@H]2Oc3c(NC(=O)Nc4cccc5ccccc45)cccc3C(=O)N([C@@H](C)CO)C[C@H]2C)c1,active
3,C[C@H](CO)N1C[C@H](C)[C@@H](CN(C)S(C)(=O)=O)Oc2ccc(NS(=O)(=O)c3ccc(Cl)cc3)cc2CC1=O,inactive
4,O=C1C(CCS(=O)c2ccccc2)C(=O)N(c2ccccc2)N1c1ccccc1 (stereo not drawn),inactive
5,C[C@@H]1CN([C@@H](C)CO)C(=O)Cc2cc(NC(=O)CCC(F)(F)F)ccc2O[C@H]1CN(C)Cc1ccc(-c2ccccc2)cc1,inactive
6,N#Cc1ncccn1,inactive
7,COc1ccc(S(=O)(=O)Nc2cccc3c2O[C@H](CN(C)Cc2ccc(Oc4ccccc4)cc2)[C@H](C)CN([C@H](C)CO)C3=O)cc1,inactive
8,CO[C@H]1CN(C)C(=O)c2ccc(NC(=O)C3CC3)cc2OC[C@@H](C)N(C(=O)C2CCOCC2)C[C@@H]1C,inactive
9,CO[C@@H]1[C@H](O)[C@@H](CO)O[C@H]1n1ccc(N)nc1=O,inactive
10,C[C@H](CO)N1C[C@H](C)[C@H](CN(C)C(=O)Nc2ccc(C(F)(F)F)cc2)Oc2ncc(/C=C/c3ccccc3)cc2C1=O,inactive
11,COCCN1CC[C@@H](CO)C1,inactive
12,C[C@@H](N)CCCC(C)(C)O,inactive
13,COC(=O)c1ccc(C(=O)NN)cc1,inactive
14,C[C@H](CO)N1C[C@H](C)[C@H](CN(C)Cc2cccc(C(F)(F)F)c2)Oc2ncc(-c3cccc(F)c3)cc2C1=O,active
15,COc1ccc(S(=O)(=O)N(C)C[C@H]2Oc3cc(C4=CCCC4)ccc3S(=O)(=O)N([C@@H](C)CO)C[C@@H]2C)cc1,inactive
16,CCS(=O)(=O)N1CC[C@]2(CC1)CN([C@@H](CO)c1c2c2ccc(cc2n1C)OC)C(=O)Nc1c(noc1C)C,inactive
17,C=CCN(CCCC)C(=O)[C@H]1N(CCOCCO)C(=O)[C@H]2[C@H](C(=O)O)[C@@H]3C=C[C@@]21O3,inactive

row,SMILES,cytotoxicity call
1,COc1ccc(S(=O)(=O)N(C)C[C@@H]2OCCCC[C@H](C)Oc3ccc(NC(=O)Nc4ccc(C(F)(F)F)cc4)cc3C(=O)N([C@H](C)CO)C[C@H]2C)cc1,inactive
2,C[C@H]1CCCCO[C@H](CN(C)Cc2ccncc2)[C@@H](C)CN([C@@H](C)CO)C(=O)c2cc(NC(=O)Nc3ccc(F)cc3)ccc2O1,inactive
3,Cc1noc(C)c1NC(=O)N(C)C[C@@H]1Oc2ccc(NC(=O)Cn3cnnn3)cc2C(=O)N([C@H](C)CO)C[C@H]1C,inactive
4,C=CC[C@@H](CC(=O)NCCO)C(=O)N[C@H](COC(=O)[C@H](CC=C)CC(=O)OC(C)(C)C)Cc1c[nH]c2ccccc12,inactive
5,CC(C)NC(=O)Nc1ccc2c(c1)C(=O)N([C@H](C)CO)C[C@H](C)[C@H](CN(C)S(=O)(=O)c1cn(C)cn1)O2,inactive
6,C[C@H]1CN([C@@H](C)CO)C(=O)Cc2cc(NC(=O)c3ccncc3)ccc2O[C@H]1CN(C)S(=O)(=O)c1ccccc1,inactive
7,C[C@H]1CN([C@@H](C)CO)C(=O)Cc2cc(NC(=O)CCCCCC(=O)Nc3ccccc3N)ccc2O[C@@H]1CN(C)C(=O)Nc1ccc(F)cc1,inactive
8,COc1cccc(S(=O)(=O)N(C)C[C@@H]2OCc3cn(nn3)CCCC(=O)N([C@@H](C)CO)C[C@@H]2C)c1,inactive
9,C[C@@H](O)/C=C/c1cccc[n+]1C,inactive
10,COc1ccc(S(=O)(=O)N(C)C[C@@H]2OCCCC[C@H](C)Oc3ccc(NC(=O)Nc4ccc(F)cc4)cc3C(=O)N([C@@H](C)CO)C[C@H]2C)cc1,inactive
11,NS(=O)(=O)c1ccc(F)c(C(=O)O)c1,inactive
12,CO[C@@H]1CN(C)C(=O)c2ccc(NS(=O)(=O)c3cn(C)cn3)cc2OC[C@H](C)N(Cc2cccc(F)c2)C[C@@H]1C,inactive
13,C[C@H](CO)N1C[C@H](C)[C@H](CN(C)Cc2ccc(C(F)(F)F)cc2)Oc2ccc(NC(=O)NC3CCCCC3)cc2CC1=O,inactive
14,C[C@@H]1CN([C@@H](C)CO)S(=O)(=O)c2ccc(C#Cc3ccncc3)cc2O[C@H]1CN(C)S(=O)(=O)c1ccccc1,active
15,COc1ccc(S(=O)(=O)N[C@@H]2C=C[C@H](CC(=O)N3CCC(Cc4ccccc4)CC3)O[C@H]2CO)cc1,inactive
16,CCCC#Cc1cnc2c(c1)C(=O)N([C@@H](C)CO)C[C@@H](C)[C@@H](CN(C)S(=O)(=O)c1cn(C)cn1)O2,inactive
